Laboratory results: PubChem BioAssay AID1347055 (National Center for Advancing Translational Sciences (NCATS), 2019)
Values joined by “and” are separate entries in the source; they are usually repeats but may differ in a detail not shown here. Equal entries are not always repeated. The whole screen tested about 54,000 compounds, of which about 120 (0.22%) were called active. The inconclusive results got no clear call from the source; some entries with a clear call stand among them for comparison. The call rests on the fitted dose curve; in most records, active means well fitted inhibition curve with a large enough effect; inconclusive means small, poorly fitted or top-dose-only effect, or effect the other way; inactive means flat fitted curve, though single readings scatter. Potencies of inconclusive entries are doubtful fits and often do not repeat.

The compounds below were run against Fumarate hydratase, mitochondrial (Homo sapiens) (UniProt P07954) (assay: Identification of activators of human fumarate hydratase by quantitative high-throughput screening). Details: FH coupled MDH/diaphorase resazurin fluorescence, 15 min; series mostly up to 79.9 µM.
UniProt P07954, sequence (P07954 whole entry, looked up): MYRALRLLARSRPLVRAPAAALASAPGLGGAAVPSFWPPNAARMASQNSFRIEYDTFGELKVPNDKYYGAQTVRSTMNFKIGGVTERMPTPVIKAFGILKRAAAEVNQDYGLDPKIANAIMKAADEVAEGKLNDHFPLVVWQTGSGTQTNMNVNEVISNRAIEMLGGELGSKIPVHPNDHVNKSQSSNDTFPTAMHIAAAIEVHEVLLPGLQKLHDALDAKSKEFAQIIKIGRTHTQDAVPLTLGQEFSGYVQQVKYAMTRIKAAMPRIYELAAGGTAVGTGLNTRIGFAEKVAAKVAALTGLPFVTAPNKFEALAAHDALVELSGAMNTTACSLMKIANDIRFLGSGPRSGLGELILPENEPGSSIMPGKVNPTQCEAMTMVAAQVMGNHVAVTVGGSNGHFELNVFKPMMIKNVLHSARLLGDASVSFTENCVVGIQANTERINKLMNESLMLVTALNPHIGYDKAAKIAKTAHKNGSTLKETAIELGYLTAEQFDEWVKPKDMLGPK
Further: nearly all actives have a fitted effect of over 45% in size.
Potency means the concentration at half of the fitted maximal effect; tags describe the fitted curve by direction and shape.

SMILES	Potency
CCC(=O)Nc1ccccc1-c1nc2ccccc2n(C(C)C(=O)Nc2cccc(Cl)c2C)c1=O (stereo not given)	inconclusive: 31.6 µM [inhibitor, partial curve, poor fit]
CCOc1ccc2oc(=O)cc(CN3CCN(Cc4ccc(F)cc4)CC3)c2c1	inactive
CCn1c(=O)cc(SCC(=O)NCCc2cccc(C)c2)c2ccccc21	inactive
CCN(Cc1ccccc1)C(=O)c1cc2c(=O)oc3ccc(C)cc3c2s1	inconclusive: 50.1 µM [inhibitor, single point]
Cc1cccc(N2CC(c3nc4ccccc4n3CCC3CCCCC3)CC2=O)c1 (stereo not given)	inconclusive: 28.2 µM [inhibitor, partial curve, poor fit]
COCCCNC(=O)c1ccc(Cn2c(=O)c3ccccc3n(CC(=O)Nc3ccc(C)cc3C)c2=O)cc1	inactive
CCOc1ccc(NC(C)=O)cc1	inactive
COc1cccc(CNC(=O)CSc2n[nH]c(-c3ccccc3Cl)n2)c1OC	inconclusive: 17.8 µM [inhibitor, partial curve]
COc1cc(OC)c(N(C)C(=O)C2CCCN(c3ncnc4c3nc3n4CCCCC3)C2)cc1Cl (stereo not given)	inconclusive: 50.1 µM [inhibitor, partial curve, poor fit]
COc1cc2ncnc(Nc3ccc(F)c(Cl)c3)c2cc1OCCCN1CCOCC1	inactive
CCOc1ccc(-c2ccc(Cn3c(CC(C)(C)C(=O)O)c(SC(C)(C)C)c4cc(OCc5ccc(C)cn5)ccc43)cc2)cn1	inconclusive: 31.6 µM [inhibitor, single point] and inconclusive: 35.5 µM [inhibitor, single point]
O=C(NCc1ccccc1)c1ccc2c(c1)N(Cc1cccc(Cl)c1)C(=O)c1ccccc1S2(=O)=O	inactive
Cc1oc(-c2ccc(C(=O)NCCc3ccc(Cl)cc3)cc2)nc1CSc1ccccc1	inactive
Cc1cccc(N2CCN(CCCNC(=O)c3sc4ncccc4c3-n3cccc3)CC2C)c1 (stereo not given)	inconclusive: 31.6 µM [inhibitor, single point]
C=C1C(=O)O[C@H]2/C=C(/C)[C@@H](OC(C)=O)C/C=C(\C)C[C@@H](OC(=O)/C(=C/C)COC(=O)/C(=C/C)CO)[C@@H]12	inactive
CC(C)c1ccc(C2CC(=O)Nc3cc4c(cc32)OCCO4)cc1 (stereo not given)	inconclusive: 35.5 µM [inhibitor, single point]
COc1ccc2c(c1)C(C(=O)N(Cc1ccc(N(C)C)cc1)c1ccc(C(C)C)cc1)CCC2 (stereo not given)	inconclusive: 28.2 µM [inhibitor, partial curve, poor fit]
Cc1ccc2ccc3cc(C(=O)N4CCN(c5ccccc5F)CC4)nc3c2[nH]1	inactive
CCN(C(=O)CN1C(=O)c2ccccc2Sc2ccc(C(=O)OC)cc21)c1cccc(C)c1	inconclusive: 39.8 µM [inhibitor, partial curve, poor fit]
CCCNC(=O)c1ccc2c(c1)N=C(CCC)c1ccccc1S2	inconclusive: 39.8 µM [inhibitor, partial curve, poor fit]
Cc1ccc(Cl)cc1-n1ncc2c(NCCc3ccccc3)ncnc21	inactive
Cc1cccc(-c2nc(SCc3cc(=O)c4c(C)cc(C)cc4[nH]3)n[nH]2)c1	inactive

SMILES	Potency
COc1cccc(NC(=O)Cn2c(=O)oc3cc(S(=O)(=O)N4CCCCC4)ccc32)c1	inactive
COc1ccc(OC)c(CCNC(=O)c2nc(-c3ccc(Cl)cc3)n3c2CCCCC3)c1	inconclusive: 25.1 µM [inhibitor, partial curve, poor fit]
CCOC(=O)c1cccc(NC(=O)Cn2ncc3c(=O)oc4ccccc4c32)c1	inactive
CC(C)(C)c1ccc(C(=O)Nc2cc(Cl)c(Br)cc2C(=O)O)cc1	inconclusive: 35.5 µM [inhibitor, partial curve]
COc1ccc(S(=O)(=O)N(CC(=O)NC(C)c2ccccc2)c2ccc(C)cc2)cc1OC (stereo not given)	inconclusive: 25.1 µM [inhibitor, partial curve]
COc1ccc(CCNC(=O)CCc2c(C)nc3cc(-c4cccc(F)c4)nn3c2C)cc1OC	inactive
FC(F)(F)c1cccc(Nc2c3c(nc4ccc(Cl)cc24)CCC3)c1	inconclusive: 35.5 µM [inhibitor, single point]
CCCCCN1C(C(=O)c2ccccc2)=C(OC(=O)CC)c2ccccc2S1(=O)=O	inconclusive: 2.82 µM [inhibitor, full curve, poor fit]
Cc1cc(N2CCN([C@@H]3CN[C@H](C(=O)N4CCSC4)C3)CC2)n(-c2ccccc2)n1	inactive
COc1ccc(-c2noc(CNC(=O)COc3cccc(C)c3C)n2)cc1	inconclusive: 35.5 µM [inhibitor, partial curve, poor fit]
Cc1ccc2nc(Cl)c3cc(C(=O)N4CCCCC4)sc3c2c1	inconclusive: 25.1 µM [inhibitor, partial curve]
Cn1c(=O)n(C)c2cc(N3CCOCC3)c(NS(=O)(=O)c3cccc(C#N)c3)cc21	active: 15.8 µM
CCCC1=Nc2cc(C(=O)N3CCC(C(=O)OCC)CC3)ccc2Sc2ccccc21	inconclusive: 31.6 µM [inhibitor, partial curve, poor fit]
Clc1ccc2c(c1)C1=NCCN1c1c(-c3noc(C4CC4)n3)ncn1-2	inactive
Cc1csc2nc(COC(=O)c3ccc(NC(=O)C(C)Oc4ccccc4)cc3)cc(=O)n12 (stereo not given)	inconclusive: 39.8 µM [inhibitor, single point]
CC(C)S(=O)(=O)NC[C@@H]1CC(c2ccc(N3CCCC3)c(F)c2)=NO1	inactive
Cc1ccc2nc(-c3ccccn3)c(Nc3ccccc3C)n2c1	inconclusive: 3.16 µM [activator, partial curve, poor fit]
O=C(Nc1ccc(F)cc1)c1oc2ccccc2c1NC(=O)C1CCCCC1	inconclusive: 50.1 µM [inhibitor, partial curve, poor fit]
O=c1c(O)c(-c2ccc(O)c(O)c2)oc2cc(O)cc(O)c12	inconclusive: 20 µM [activator, single point]
Cc1ccc(S(=O)(=O)N2CCCc3cc(NS(=O)(=O)c4ccc(F)cc4)ccc32)cc1	inconclusive: 28.2 µM [inhibitor, single point]
COc1ccc(C(=O)NCCc2csc(-c3ccc(Cl)cc3)n2)cc1	inconclusive: 50.1 µM [inhibitor, single point]
Cc1ccc(C2=CC(c3ccc(Cl)cc3)n3nc(-c4ccc(C)cc4)nc3N2)cc1 (stereo not given)	inactive

SMILES	Potency
COc1cc(NC(=O)CN2C(=O)C(c3ccc(Cl)cc3)=NC23CCCCC3)cc(OC)c1	inactive
COc1ccc(NC(=O)CCc2nc3cccnc3n2-c2ccccc2)cc1Cl	inactive
O=c1c2c3c(sc2n(Cc2ccccc2F)c(=O)n1-c1ccc(Cl)cc1)CCCC3	inactive
COc1ccc(CCNC(=O)c2cc3c(-c4ccc(OC)c(OC)c4)nn(C)c3s2)cc1OC	active: 31.6 µM
O=Nc1c2[nH]c3ccccc3nc-2c2ccccc12	inactive
Cc1ccc(Nc2c(-c3ccc(N4CCOCC4)cc3)nc3c(C)cccn23)cc1	inconclusive: 31.6 µM [inhibitor, partial curve, poor fit]
COc1ccc(CC(=O)Nc2ccc3nc(Nc4cccc(Cl)c4)cc(C)c3c2)cc1	inconclusive: 28.2 µM [inhibitor, partial curve, poor fit]
COc1cc(NS(=O)(=O)c2ccc3[nH]c4c(c3c2)CCCC4)cc(OC)c1OC	inconclusive: 50.1 µM [inhibitor, single point]
C=Cc1ccc(Cn2c(C(=O)O)c(CNCCc3ccccc3)c3ccc(C)cc32)cc1	inconclusive: 31.6 µM [inhibitor, partial curve, poor fit]
O=C(O)C[C@H]1CCC(=O)[C@@H]1C/C=C\CCO	inactive
CCN1CCOC(=O)C1CC(=O)Nc1ccc(C)c(Cl)c1 (stereo not given)	inactive
Cc1ccccc1-c1nc2scc(CCNC(=O)C(=O)Nc3ccc(F)cc3F)n2n1	inconclusive: 25.1 µM [inhibitor, single point]
O=C(O)C1(C(=O)O)CCC1.[NH2-].[NH2-].[Pt+2]	inconclusive: 12.3 µM [inhibitor, partial curve, poor fit]
CCOC(=O)Cn1c(=O)n(-c2cccc(Cl)c2)c2nc(-c3ccccc3Cl)nc(C(N)=O)c21	inconclusive: 31.6 µM [inhibitor, partial curve, poor fit]
CCn1cc(C(=O)NCCc2ccccc2)c(=O)c2cc(S(=O)(=O)N3CCCCCC3)ccc21	inconclusive: 28.2 µM [inhibitor, partial curve, poor fit]
COc1ccc(Br)cc1CNC(=O)c1cc(=O)[nH]c2ccc(S(=O)(=O)N3CCCCC3C)cc12 (stereo not given)	inconclusive: 44.7 µM [inhibitor, partial curve, poor fit]
CCCCOc1ccc(C2=NC(c3cccs3)=Nc3ccc(OC)cc3N2)cc1	inconclusive: 44.7 µM [inhibitor, partial curve, poor fit]
CCC1CCc2nc3sc(C(=O)Nc4cccc(F)c4)c(N)c3cc2C1 (stereo not given)	inactive
Fc1ccc2c(CCNCc3cccc(OCC(F)(F)C(F)F)c3)c[nH]c2c1	inactive
Cc1ccc(CSc2nnc([C@@H](N)C(C)C)o2)cc1	inconclusive: 4.47 µM [activator, partial curve, poor fit]
CCOC(=O)c1sc2ccccc2c1S(=O)(=O)Nc1ccc(OC)c(Cl)c1	inconclusive: 0.178 µM [inhibitor, single point]
